Measurements taken from patent CN110606891A (L&L BIOPHARMA CO LTD, dated 2019).
Substitutions are numbered along the chain they refer to.

T1: 鼠CLDN18.2 (mCLDN18.2), claudin-18 isoform A2.1 [Mus musculus], NP_001181850.1 (mouse, UniProt P56857 10-264)
T1 construct: also called 鼠CLDN18.2+细胞; mCLDN18.2+ cell
T1 chain: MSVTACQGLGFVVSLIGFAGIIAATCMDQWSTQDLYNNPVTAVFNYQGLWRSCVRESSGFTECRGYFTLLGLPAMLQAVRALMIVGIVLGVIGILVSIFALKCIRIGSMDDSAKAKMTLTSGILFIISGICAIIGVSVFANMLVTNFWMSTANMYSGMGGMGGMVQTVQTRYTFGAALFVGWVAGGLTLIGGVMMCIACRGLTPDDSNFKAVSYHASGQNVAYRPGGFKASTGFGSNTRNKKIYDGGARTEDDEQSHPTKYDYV

T2: 人CLDN18.1 (hCLDN18.1), claudin-18 isoform 1 precursor [Homo sapiens], NP_057453.1 (human, UniProt P56856 1-261)
T2 construct: No signal peptide limits stated for this entry; also called 人CLDN18.1+ 细胞; hCLDN18.1+ cell
T2 sequence: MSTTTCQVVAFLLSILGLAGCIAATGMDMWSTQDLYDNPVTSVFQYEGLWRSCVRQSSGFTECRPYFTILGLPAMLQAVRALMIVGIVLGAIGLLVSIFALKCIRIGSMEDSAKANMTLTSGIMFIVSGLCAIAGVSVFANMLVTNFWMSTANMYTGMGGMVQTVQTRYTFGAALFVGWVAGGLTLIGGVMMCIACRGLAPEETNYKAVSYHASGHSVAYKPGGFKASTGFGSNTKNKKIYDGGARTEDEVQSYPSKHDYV

B1: 人源化Ab14抗体 (antibody, human IgG1, kappa)
heavy: QVQLVQSGAEVKKPGSSVKVSCKASGYAFSNYLIEWVRQAPGQGLEWMGLINPGSGGTNYNEKFKGKVTITADKSTSTAYMELSSLRSEDTAVYYCARVYYGNSFAYWGQGTLVTVSS[human IgG1 constant region not written out]
light: DIVMTQSPDSLAVSLGERATINCKSSQSLLNSGNNKNYLAWYQQKPGQPPKLLIYWASTRESGVPDRFSGSGSGTDFTLTISSLQAEDVAVYYCQNDYFYPFTFGQGTKLEIKRTVAAPSVFIFPPSDEQLKSGTASVVCLLNNFYPREAKVQWKVDNALQSGNSQESVTEQDSKDSTYSLSSTLTLSKADYEKHKVYACEVTHQGLSSPVTKSFNRGEC
notes: Humanized, hIgG1 (DEL) / kappa; also called L13/H54
B2: Ab24 抗体 (antibody, human IgG1, kappa)
heavy: B1 heavy with S104T
light: B1 light with S32T
notes: hIgG1 (DEL) / kappa; also called L21/H61 DEL
B3: 人源化Ab13抗体 (antibody, human IgG1, kappa)
heavy: B1 heavy with K67R, K74E
light: B1 light
notes: Humanized without back mutations, hIgG1 (DEL) / kappa; also called L13/H53; 全人源化抗体
B4: 人源化Ab6抗体 (antibody, human IgG1, kappa)
heavy: B1 heavy with R38K, M48I, V68A
light: B1 light with N22S
notes: Humanized, light-chain CDR1 humanized (Var3), hIgG1 (DEL) / kappa; also called L12/H51
B5: 人源化Ab12抗体 (antibody, human IgG1, kappa)
heavy: B1 heavy
light: B1 light with N22S
notes: Humanized, hIgG1 / kappa
B6: 人源化Ab15抗体 (antibody, human IgG1, kappa)
heavy: B1 heavy with R38K, M48I, V68A
light: B1 light
notes: Humanized, hIgG1 / kappa

Target: T1, 鼠CLDN18.2 (mCLDN18.2), claudin-18 …
Assay: cell ELISA on mCLDN18.2+ cells (Table 23)

| EC50 [nM] | Emax | Binder |
| --- | --- | --- |
| 0.399 | 2.39 | B1 |
| 0.574 | 2.22 | B2 |
| 0.422 | 2.37 | B3 |
| 0.594 | 2.47 | B4 |

target: T2, 人CLDN18.1 (hCLDN18.1), claudin-18 …; assay: cell ELISA on hCLDN18.1+ cells

| binding result | Binder |
| --- | --- |
| no binding | B1 |
| no binding | B5 |
| no binding | B6 |
| no binding | B4 |
